# Test results as given in the supplement of paper PMC3724861.
# The other results are listed elsewhere or left out.
# Test system: T1, Caupolican (Caup) homeodomain DNA-binding domain
# T1 sequence: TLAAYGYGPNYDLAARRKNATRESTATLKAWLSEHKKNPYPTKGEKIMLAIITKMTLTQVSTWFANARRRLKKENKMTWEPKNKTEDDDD
# Assay: PBM E-score (8-mer, recovered from the published 9-mer minima) (E-score (dimensionless, -0.5 to 0.5)); Drosophila protein; higher = stronger relative binding preference, active = 0.31 or more
# In short: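 An enrichment score, with higher meaning stronger, expresses relative binding preference for each short DNA word. The protein used was Caup's homeodomain DNA-binding domain (residues 214-303), produced by in vitro transcription and translation and tested at 100 nM on custom-designed protein binding microarrays. The 8-mer values were recovered from published 9-mer scores, each equal to the lower of its two constituent 8-mer scores.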
row,Sequence,PBM E-score
1,ATTCGATA,inactive: 0.127
2,CGCTACAG,inactive: 0.0256
3,AAAGCGAT,inactive: -0.0933
4,ATGCTACC,inactive: 0.0307
5,AGAAGCAT,inactive: 0.0713
6,CGTAATGC,inactive: 0.0774
7,TCAAGAAA,inactive: 0.087
8,AATACCTA,≥ 0.144
9,ACCATGGG,inactive: -0.0949
10,GCAGGTAC,inactive: 0.00032
11,GTATACTA,inactive: 0.16
12,CCCATGGG,inactive: -0.113
13,AGGAAAAA,inactive: 0.0674
14,GCCGCAAA,inactive: -0.157
15,ACCCTAAA,inactive: -0.00402
16,TATTAGAA,≥ 0.178
17,ATCAAGTC,inactive: 0.0937
18,AGTCTCTG,inactive: -0.0765
19,ACACACCG,inactive: 0.193
20,AGAAAATC,inactive: -0.011
21,AGATCGAT,inactive: 0.0539
22,ACGATTTC,inactive: 0.106
23,CAGCGGGA,inactive: -0.198
24,CGATTTTA,inactive: 0.112
25,CCGTGAAC,inactive: 0.0199

row,Sequence,PBM E-score
1,CGCGAATA,inactive: -0.0265
2,CAGACGTC,inactive: -0.00226
3,CAGAAATC,inactive: -0.00258
4,ACCCACAG,inactive: 0.0192
5,CCTGGTTC,inactive: -0.0801
6,CTATGTCC,inactive: 0.193
7,AAGGTTCT,inactive: -0.082
8,ACGATCTC,inactive: -0.0606
9,ATATCGAA,≥ 0.15
10,AAGAAAAC,inactive: 0.0287
11,ATACGGAC,inactive: 0.0687
12,CTTACACA,inactive: 0.201
13,GTCACCCA,inactive: -0.0906
14,AACAGGCA,inactive: 0.129
15,CGTCGACC,inactive: -0.0713
16,ATAGCCGC,inactive: -0.171
17,ACTCCATA,≥ 0.109
18,ACGGCGCG,inactive: -0.119
19,CACCGCAG,inactive: -0.144
20,GTAGCAAC,inactive: 0.128
21,CACGTTGG,inactive: 0
22,CGTTTAGA,inactive: -0.0316
23,GAGCGCCA,inactive: -0.226
24,AACTACGC,inactive: 0.0172
25,AAGACCAG,inactive: -0.0777

row,Sequence,PBM E-score
1,CTGGAATA,inactive: 0.0218
2,ACTGAGTA,inactive: 0.0357
3,GATATATC,inactive: 0.115
4,GTCCACAC,inactive: 0.00307
5,CGTCTGCC,inactive: -0.188
6,GCTCGGAC,inactive: -0.0309
7,ATTCTTGC,inactive: -0.0196
8,CTTGCTCA,inactive: -0.0446
9,ACATACAT,active: 0.427
10,AATATGGG,inactive: -0.0176
11,CGCAGCAC,inactive: -0.216
12,AGAGCATA,inactive: -0.0187
13,CGTGGAAA,inactive: 0.00524
14,ACAGCAAA,inactive: 0.109
15,ACACCCGG,inactive: -0.00956
16,AGTTGCAT,inactive: 0.123
17,ACATTTCA,inactive: 0.207
18,ATAATGCA,inactive: 0.0643
19,AATCCCGA,inactive: 0.033
20,ATAGTTCA,inactive: 0.097
21,GCCGGAAC,inactive: -0.201
22,ATCATAGA,inactive: 0.108
23,TAGCGCTA,inactive: -0.0511
24,ATCGGTAC,inactive: 0.0373
25,TATGGGGA,≥ 0.0166

row,Sequence,PBM E-score
1,ACATGCCG,inactive: 0.229
2,ATCCCAAC,inactive: 0.0432
3,CAAAACTG,inactive: 0.0889
4,AAGCGGCT,inactive: -0.12
5,AAAGTCGT,inactive: 0.0643
6,ACGAAAAC,inactive: 0.127
7,CTGGCTTC,inactive: -0.225
8,CTATCGTC,inactive: 0.0117
9,CTAGTAAA,inactive: 0.211
10,ACAGGCGA,inactive: -0.0478
11,GACCTTCA,inactive: -0.125
12,ACAGCTCG,inactive: -0.0316
13,CGACTGCC,inactive: -0.212
14,ATTAAACG,inactive: 0.191
15,ATCTCGCA,≥ 0.00909
16,TCAGCCAA,inactive: -0.00848
17,AGAATGCG,inactive: -0.0497
18,AGCAGCCG,inactive: -0.0931
19,AATGTGAG,inactive: 0.0877
20,GTTTAAAA,inactive: 0.112
21,ATGTCACA,active: 0.39
22,TGATGGAA,inactive: 0.0727
23,AAGACTAA,inactive: 0.0516
24,GAAGCTGC,inactive: -0.163
25,CCAACTTA,inactive: 0.0269

row,Sequence,PBM E-score
1,ATTTCAGG,inactive: -0.075
2,GCCATTGA,inactive: -0.0207
3,CGCGTCAC,inactive: -0.00637
4,CTCTTGGC,inactive: -0.165
5,CCTTTGAC,inactive: 0.00273
6,CGAAGGCA,inactive: -0.154
7,ATGTTGGC,inactive: 0.0994
8,AAGTGACC,inactive: -0.0168
9,CGACAGCG,inactive: -0.0431
10,ACACCCAA,inactive: 0.0475
11,AGTATCGA,inactive: 0.117
12,GGACACTA,inactive: 0.0299
13,AGGCATTG,inactive: -0.0152
14,GCTAAGGA,inactive: -0.2
15,ACCCGCCG,inactive: -0.115
16,CGCACTGA,inactive: -0.0686
17,ACAGGACA,≥ 0.223
18,AAGTTGCT,inactive: -0.068
19,AGACTAGC,inactive: -0.0746
20,CTAGCGTA,inactive: -0.0972
21,ACTTTTGC,inactive: 0.0193
22,GTACCTAC,inactive: 0.159
23,CTCACCGA,inactive: -0.103
24,ACCTGTTA,inactive: 0.222
25,AGGTGACC,inactive: -0.11

row,Sequence,PBM E-score
1,AGCAGCAT,≥ 0.0509
2,CGAGCTGA,inactive: -0.103
3,GGTGTTCA,inactive: 0.192
4,CCCACACC,inactive: -0.126
5,GATGTATA,inactive: 0.295
6,ACTACTCC,inactive: -0.0438
7,TCCTGGAA,inactive: -0.119
8,CCTTCACA,inactive: 0.0705
9,CACGGCGA,inactive: -0.00155
10,CCAAGGGA,inactive: -0.141
11,CCGCGTAC,inactive: -0.07
12,AACTTCTG,inactive: -0.016
13,ACCGACGC,inactive: -0.088
14,AATCGAGC,inactive: 0.0234
15,CTGACGGA,inactive: -0.00167
16,ACACCAAG,inactive: 0.158
17,AAGGCTAA,inactive: -0.0978
18,GATGGAGC,inactive: -0.058
19,GACTGCCC,inactive: -0.159
20,AGCGGGAC,inactive: -0.146
21,GCAGTGGA,inactive: -0.0738
22,ACACTTAG,inactive: 0.0557
23,ATGAATCG,inactive: 0.0391
24,GAAAGCAC,inactive: 0.0573
25,CACAATGC,inactive: 0.0831

row,Sequence,PBM E-score
1,AACCGCCC,inactive: -0.173
2,GCGTCGTA,inactive: 0.0227
3,CCTGCAGA,inactive: -0.0882
4,ATGGAAAC,inactive: 0.0872
5,CAGACAAA,inactive: 0.106
6,CACTGGGG,inactive: -0.262
7,ATACCCGG,inactive: -0.143
8,GCATAACC,inactive: -0.0492
9,CAAGAGTC,inactive: -0.0606
10,ACATTCTG,inactive: 0.103
11,CCCAGATC,inactive: -0.171
12,GTTTGTAA,inactive: 0.198
13,CGCTCCCA,inactive: -0.17
14,CCTAACTA,inactive: 0.0587
15,ATAGCCGG,inactive: -0.108
16,CCTCCATA,inactive: -0.0938
17,GGCACCCA,inactive: -0.218
18,CTACACAA,inactive: 0.288
19,CCCGTAGG,inactive: -0.214
20,AAAGCGTT,inactive: -0.117
21,GACAGGGA,inactive: 0.0917
22,CGAGTTAG,inactive: 0.0397
23,AATAGTAA,inactive: 0.11
24,CAGGCGAA,inactive: -0.0547
25,AGCGGGGG,inactive: -0.28

row,Sequence,PBM E-score
1,ACATCATG,inactive: 0.273
2,CATTCGTA,inactive: 0.132
3,AGGGGTCA,inactive: -0.0704
4,TACTCTAA,inactive: 0.0929
5,GCTGACAC,inactive: 0.115
6,AAGTTGCC,inactive: -0.119
7,AAGGCTCA,inactive: -0.107
8,ATGGCCCG,inactive: -0.24
9,GCAAATTA,inactive: 0.0975
10,CCACTGGC,inactive: -0.144
11,AACGCGCT,inactive: -0.164
12,AGAGCCCT,inactive: -0.2
13,TGACGGAA,inactive: 0.0111
14,AGGCACTG,inactive: -0.0611
15,CGAAGACA,inactive: 0.0398
16,CCTGCAAG,inactive: -0.207
17,ACTGGGAG,inactive: -0.112
18,GCGATAAA,inactive: -0.0522
19,CGGCGAGC,inactive: -0.178
20,GAGCAACA,inactive: 0.0811
21,CTGGCCTA,inactive: -0.174
22,GACTAGGA,inactive: 0.126
23,AGTTACTA,inactive: 0.185
24,CGATCAAG,inactive: -0.0172
25,AGGGCTAA,≥ -0.0555

row,Sequence,PBM E-score
1,ACGAGAGC,inactive: -0.111
2,CTATGACC,inactive: -0.00145
3,TCGGACCA,inactive: -0.0836
4,GCGAGATA,inactive: -0.00844
5,AACTATCG,inactive: 0.0761
6,CACGGCTA,inactive: 0.00537
7,CGCTTCAA,inactive: -0.0124
8,GCGCTTTA,inactive: -0.0789
9,CCTTTCGA,inactive: -0.0548
10,ATCTTTTG,inactive: 0.00208
11,ACTACACG,active: ≥ 0.357
12,AGTTCTTC,inactive: -0.0988
13,ACTAAAGC,inactive: 0.0589
14,AAAGCGTA,inactive: -0.0609
15,GCACGATA,inactive: 0.0539
16,TAGATCAA,inactive: 0.104
17,CACATTAA,inactive: 0.201
18,CAATCTGG,inactive: -0.0108
19,AAAGTGAT,inactive: 0.0964
20,GACCCACC,inactive: -0.229
21,AACGCTCC,inactive: -0.0296
22,GATACCCA,inactive: -0.00243
23,ATCAGGCA,≥ 0.0206
24,ACCTCTCT,≥ -0.0265
